{
  "source": "PubChem BioAssay AID1345083",
  "about": "(National Center for Advancing Translational Sciences (NCATS), 2018)",
  "note": "Among all 94,000 compounds or so, about 6,200 (6.6%) were called active. The shares of active, inactive and inconclusive entries below differ from those in the screen. The call rests on the fitted dose curve; in most records, active means well fitted inhibition curve with a large enough effect; inconclusive means small, poorly fitted or top-dose-only effect; inactive means flat fitted curve, though single readings scatter. A potency beside an inconclusive call is a rough fit, not a confirmed value. On the % scale 0 is the no-effect control and ±100 the full control effect; potency means the concentration at half of the fitted maximal effect; tags describe the fitted curve by direction and shape.",
  "data": [
    {"experiment": "Cytotoxic Profiling in HEK 293 Cell Line of Diverse Libraries Using Quantitative High-Throughput Screening; further: nearly all actives have a fitted effect of over 60% in size", "conditions": "HEK 293 viability, ATP luminescence (CellTiter-Glo), 48-72 h; activity change, negative = cytotoxicity: at 115 µM (top of the series) unless noted; series mostly up to 115 µM", "how_it_was_run": "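Cytotoxicity was scored by loss of ATP-coupled luminescence (CellTiter-Glo) in HEK 293 cells. Compound treatment ran 48 or 72 hr at 37 degree Celsius, 5% CO2, 95% humidity.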", "values": [
      {"smiles": "CC1(C(=O)Nc2ccc(F)c(F)c2)CCCCC(=O)N1", "note": "(stereo unspecified)", "activity change, negative = cytotoxicity": "inactive: 0.412%"},
      {"smiles": "COc1ccc(CCC(=O)N2C[C@@H](Oc3ccccc3)C[C@H]2C(=O)N2CCOCC2)cc1", "activity change, negative = cytotoxicity": "inactive: -0.714%"},
      {"smiles": "O=C(Nc1ccccc1)N1CCC2(CC1)CC(N(C(=O)c1ccccc1)C1CC1)CCO2", "note": "(stereo unspecified)", "Potency": "inconclusive: 89.1 µM [inhibitor, single point]"},
      {"smiles": "COc1cccc(CN2CCOC3CCN(Cc4cccc(F)c4)CC3C2=O)c1", "note": "(stereo unspecified)", "Potency": "inconclusive: 112 µM [inhibitor, single point]"},
      {"smiles": "CCc1ccc(CN2CCC3(CC2)Cc2ccccc2CNC3=O)s1", "Potency": "inconclusive: 63.1 µM [inhibitor, partial curve, poor fit]"},
      {"smiles": "CN1CC(=O)N(C2CCCNC2)Cc2c1ncnc2N1CCSCC1", "note": "(stereo unspecified)", "activity change, negative = cytotoxicity": "inactive: 3.38%"},
      {"smiles": "CC(=O)Nc1ccc(C(=O)N2CCCN(c3cc(-c4ccc(Cl)cc4)[nH]n3)CC2)cc1", "Potency": "inconclusive: 50.1 µM [inhibitor, partial curve, poor fit]"},
      {"smiles": "c1ccc(CNc2cc(-c3cc(N4CCCCC4)ncn3)c3cc[nH]c3n2)nc1", "Potency": "inconclusive: 50.1 µM [inhibitor, partial curve, poor fit]"},
      {"smiles": "COc1ccc(C(=O)N2CCC3(CC2)NC(=O)N(Cc2ccc(F)cc2)C3=O)c(C)c1", "Potency": "inconclusive: 44.7 µM [inhibitor, partial curve, poor fit]"},
      {"smiles": "CCOc1ccc(NC(=O)CC2CCCN(c3cnn(CC4CC4)c(=O)c3)C2)cc1", "note": "(stereo unspecified)", "Potency": "inconclusive: 79.4 µM [inhibitor, single point]"},
      {"smiles": "O=C(Cc1ccc(N(Cc2ccccc2)C(=O)c2ccco2)cc1)Nc1ccccc1", "Potency": "active: 35.5 µM"},
      {"smiles": "Cc1cc(C)cc(-c2ccc(CN3CCCC3C(=O)NCC(F)(F)F)cc2)c1", "note": "(stereo unspecified)", "Potency": "inconclusive: 56.2 µM [inhibitor, partial curve, poor fit]"},
      {"smiles": "OC1(CN2CCN(C(c3ccccc3)c3ccccc3)CC2)CNCCOC1", "note": "(stereo unspecified)", "Potency": "inconclusive: 89.1 µM [inhibitor, single point]"},
      {"smiles": "CNC(=O)c1ccc(C2CCCN2C(=O)CCc2cc3n(n2)CCCNC3)s1", "note": "(stereo unspecified)", "activity change, negative = cytotoxicity": "inactive: 0.236%"},
      {"smiles": "CC(C)n1c(C2CCN(C(=O)C3CCCO3)CC2)nn(C)c1=O", "note": "(stereo unspecified)", "outcome": "inactive"},
      {"smiles": "Cc1ncoc1C(=O)N1CCC([C@H]2[C@@H](Oc3ccccc3)CN2C(C)C)CC1", "activity change, negative = cytotoxicity": "inactive: -18.1%"},
      {"smiles": "O=C(Cc1ccccc1F)N1CCC(OCCOc2ccc(F)cc2)CC1", "Potency": "inconclusive: 89.1 µM [inhibitor, partial curve, poor fit]"},
      {"smiles": "CN(C)c1ccc(CN[C@H]2CC(C)(C)[C@@H]3C[C@@](C)(O)CC[C@]23CCC(=O)NCCc2c[nH]c3ccccc23)cc1", "Potency": "active: 17.8 µM"},
      {"smiles": "O=C(c1ccccc1F)N1CCC(n2cc(-c3nc(C4CC4)no3)nn2)C1", "note": "(stereo unspecified)", "Potency": "inconclusive: 50.1 µM [inhibitor, partial curve, poor fit]"},
      {"smiles": "COc1ccc(F)cc1-c1ncc2c(n1)OCCN(CC1CC1)C2=O", "activity change, negative = cytotoxicity": "inactive: -11.4% [at 172 µM]"},
      {"smiles": "O=C(NCc1ccccc1)O[C@@H]1CO[C@H]2[C@@H]1OC[C@@H]2Nc1nccc(-c2ccc3c(c2)OCO3)n1", "Potency": "inconclusive: 28.2 µM [inhibitor, partial curve, poor fit]"},
      {"smiles": "Cc1ccc(C(=O)N2CCN(C(=O)c3nnn4c3COC(c3ccccc3)C4)CC2)c(C)c1", "note": "(stereo unspecified)", "Potency": "inconclusive: 50.1 µM [inhibitor, partial curve, poor fit]"},
      {"smiles": "COc1ccccc1C(=O)N1CCCC(C(=O)N2CCC(N3CCOCC3=O)CC2)C1", "note": "(stereo unspecified)", "activity change, negative = cytotoxicity": "inactive: -0.848%"},
      {"smiles": "O=C(C1CC1)N1CCCC(c2nn(-c3ccc(F)cc3)c(=O)[nH]2)C1", "note": "(stereo unspecified)", "Potency": "inconclusive: 112 µM [inhibitor, single point]"},
      {"smiles": "O=C1Nc2ccc(-c3cccs3)cc2C(=O)N2CC[C@H](NS(=O)(=O)c3ccc(Cl)cc3)C[C@@H]12", "Potency": "inconclusive: 44.7 µM [inhibitor, partial curve, poor fit]"},
      {"smiles": "COCC(=O)N1CCN(c2nccc(Nc3ccccc3F)n2)CC1", "activity change, negative = cytotoxicity": "inactive: 1.87%"},
      {"smiles": "O=c1cc(-c2cccnc2)oc2c(-c3ccccc3O)nccc12", "Potency": "inconclusive: 89.1 µM [inhibitor, partial curve]"},
      {"smiles": "Cc1ccc(CNC(=O)c2ccc3c(c2)CN(C2CCN(CC(C)C)CC2)CCO3)cc1", "Potency": "inconclusive: 50.1 µM [inhibitor, partial curve, poor fit]"},
      {"smiles": "O=C(c1ccc(F)cc1)N1CCCN(Cc2ccc3c(c2)OCO3)c2ccccc21", "Potency": "inconclusive: 8.91 µM [inhibitor, full curve, poor fit]"},
      {"smiles": "COc1ccccc1-c1cccc(C(=O)N2CCC[C@H]2C(=O)NCc2ccc(F)cc2)c1", "Potency": "inconclusive: 79.4 µM [inhibitor, partial curve, poor fit]"},
      {"smiles": "N#Cc1cccc(-c2ccnc(N[C@H]3CO[C@H]4[C@@H]3OC[C@H]4OC(=O)Nc3ccccc3)n2)c1", "activity change, negative = cytotoxicity": "inactive: -28.4%"},
      {"smiles": "COc1cc(C)c(-c2nc(Cn3cccn3)c(C)o2)cc1C", "Potency": "inconclusive: 50.1 µM [inhibitor, partial curve, poor fit]"},
      {"smiles": "Cc1ccc(Nc2ccnc(N3CCCC3C(=O)NCC3CC3)n2)cc1", "note": "(stereo unspecified)", "Potency": "active: 35.5 µM"},
      {"smiles": "CCCc1nc(NCc2ccc(-c3noc(C)n3)cc2)c2cnn(C)c2n1", "Potency": "active: 17.8 µM"},
      {"smiles": "CN1C[C@@H](NC(=O)c2cnccn2)C[C@H]1c1nc(-c2ccc(OC(F)(F)F)cc2)no1", "Potency": "active: 89.1 µM"},
      {"smiles": "COc1ccc(CCC(=O)N2CC[C@H]3C(=O)NCCCCCCN(Cc4ccncc4)[C@@H]3C2)cc1", "activity change, negative = cytotoxicity": "inactive: 0.999%"},
      {"smiles": "CN(C)C[C@@H]1CN(C)C[C@H]1NC(=O)c1cc2ccccc2[nH]1", "Potency": "inconclusive: 56.2 µM [inhibitor, partial curve, poor fit]"},
      {"smiles": "O=C(OCc1ccccc1)N1CCC2(CC1)C(=O)NN=C2c1ccccn1", "Potency": "inconclusive: 50.1 µM [inhibitor, partial curve, poor fit]"},
      {"smiles": "CCN(Cc1ccccc1)C(=O)C1CCN(c2cnn(C)c(=O)c2)C1", "note": "(stereo unspecified)", "activity change, negative = cytotoxicity": "inactive: -2.94%"},
      {"smiles": "O=C(c1cccc(N2CCNC2=O)c1)N1CCCC(CCc2ccccc2F)C1", "note": "(stereo unspecified)", "Potency": "inconclusive: 28.2 µM [inhibitor, partial curve, poor fit]"},
      {"smiles": "O=C(Nc1ccc(F)cc1)c1ccc2nc(-c3ccccn3)oc2c1", "Potency": "inconclusive: 22.4 µM [inhibitor, full curve, poor fit]"}
    ]}
  ]
}
